The text below walks through data of publication PMC4336329 (PLoS ONE, 2015).

Among all 310,000 compounds or so, about 14,000 (4.5%) showed an effect of 50% or more. Effects have a minus sign here. The list shows a part of the results.
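Note: peak tail current of the secondary pulse compared with the same well before compound.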

The target of the experiment is human ether-à-go-go-related gene (hERG) potassium channel (human, UniProt Q12809). As to the kind of experiment: primary screen, population patch clamp on CHO cells stably expressing hERG.
human ether-à-go-go-related gene (hERG) potassium channel, sequence (Q12809 whole entry, looked up): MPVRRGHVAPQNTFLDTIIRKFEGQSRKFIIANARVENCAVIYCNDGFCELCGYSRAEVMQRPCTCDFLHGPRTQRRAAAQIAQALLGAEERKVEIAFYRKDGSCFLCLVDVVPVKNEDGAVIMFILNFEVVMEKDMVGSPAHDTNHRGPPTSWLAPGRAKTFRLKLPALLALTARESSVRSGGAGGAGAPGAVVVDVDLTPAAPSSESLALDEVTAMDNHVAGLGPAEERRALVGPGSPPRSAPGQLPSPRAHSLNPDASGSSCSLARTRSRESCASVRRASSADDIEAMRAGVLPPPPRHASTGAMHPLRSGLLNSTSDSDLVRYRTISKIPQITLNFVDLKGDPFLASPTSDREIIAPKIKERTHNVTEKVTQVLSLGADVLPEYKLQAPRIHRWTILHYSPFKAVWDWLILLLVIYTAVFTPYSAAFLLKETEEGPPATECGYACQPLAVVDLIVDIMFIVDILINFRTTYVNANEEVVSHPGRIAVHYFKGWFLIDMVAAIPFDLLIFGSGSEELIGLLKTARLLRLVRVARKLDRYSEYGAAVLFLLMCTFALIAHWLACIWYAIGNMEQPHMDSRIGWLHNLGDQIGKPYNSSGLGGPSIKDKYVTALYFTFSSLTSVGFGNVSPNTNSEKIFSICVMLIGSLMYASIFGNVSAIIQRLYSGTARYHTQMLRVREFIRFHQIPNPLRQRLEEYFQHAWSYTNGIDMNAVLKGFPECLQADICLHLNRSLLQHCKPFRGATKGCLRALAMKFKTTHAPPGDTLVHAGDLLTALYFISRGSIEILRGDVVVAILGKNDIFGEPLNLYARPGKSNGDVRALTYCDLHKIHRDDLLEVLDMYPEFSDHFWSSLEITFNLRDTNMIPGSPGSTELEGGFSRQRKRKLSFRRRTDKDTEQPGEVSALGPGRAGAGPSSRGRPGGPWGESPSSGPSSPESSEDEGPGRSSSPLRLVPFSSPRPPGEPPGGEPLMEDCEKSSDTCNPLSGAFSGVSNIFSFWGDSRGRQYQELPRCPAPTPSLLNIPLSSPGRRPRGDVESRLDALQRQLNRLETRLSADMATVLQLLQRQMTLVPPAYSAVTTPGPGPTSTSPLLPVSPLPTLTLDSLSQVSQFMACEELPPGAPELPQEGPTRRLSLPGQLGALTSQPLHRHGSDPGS
Turning to `CN(Cc1ccccc1F)C(=O)CCNC(=O)c1ccc(C(C)(C)C)cc1`, the “hERG current change (%, negative = inhibition) at 10uM” value was -31.4%.

For the molecule `Cc1cccc(OCC(=O)N2CCN(C(=O)c3ccc([N+](=O)[O-])cc3)CC2)c1`, the “hERG current change (%, negative = inhibition) at 10uM” value is listed as -68.8%.

Take `CCOC(=O)CN(C#N)c1nc(C)cc(C)n1`: the “hERG current change (%, negative = inhibition) at 10uM” value was -7.84%.

With `O=C(c1c(O)cc(O)cc1O)C1c2c(cc(O)c3c2O[C@H](c2ccc(O)cc2)[C@@H](O)C3)OC1c1ccc(O)cc1` (stereo partly drawn), the “hERG current change (%, negative = inhibition) at 10uM” value is listed as 13.8%.

For `N#C/C(=C/c1ccc(-c2ccc(S(N)(=O)=O)cc2)o1)c1nc2ccccc2s1`, the “hERG current change (%, negative = inhibition) at 10uM” value is listed as 9.67%.

`CC(=O)Nc1ccc(S(=O)(=O)NCC(=O)OCC(=O)N2CCN(c3ccccc3)CC2)cc1`: the “hERG current change (%, negative = inhibition) at 10uM” value came out at 1.78%.

With `O=C1CSC(c2cccc([N+](=O)[O-])c2)N1CCc1ccccc1` (stereo not drawn), the “hERG current change (%, negative = inhibition) at 10uM” value was -20.2%.

For `COc1ccccc1NC(=O)CSc1ncc(CO)n1Cc1ccc(F)cc1`, the “hERG current change (%, negative = inhibition) at 10uM” value is listed as 0.747%.

As to `Cc1ccc(/C=N/NC(=O)CN2C(=O)CSc3ccccc32)o1`, the “hERG current change (%, negative = inhibition) at 10uM” value is on record as 11.6%.

As for `COc1ccc(C2C(C(=O)N3CCN(c4ccccc4F)CC3)c3ccccc3C(=O)N2C)cc1` (stereo not drawn), the “hERG current change (%, negative = inhibition) at 10uM” value is reported as -35.2%.

As for `Cc1ccccc1NC(=S)N1CCN(C(=O)c2ccco2)CC1`, the “hERG current change (%, negative = inhibition) at 10uM” value came out at 1.38%.

Regarding `CCc1ccc(CCC(=O)Nc2ccc(OC)cc2)o1`, the “hERG current change (%, negative = inhibition) at 10uM” value was found to be 4.65%.

Regarding `COc1ccccc1CNC(=O)Cn1cc2c(n1)CCCC2`, the “hERG current change (%, negative = inhibition) at 10uM” value is on record as -2.57%.

Regarding `Clc1ccc(CN2CCCCCC2)cc1.O=C(O)C(=O)O`, the “hERG current change (%, negative = inhibition) at 10uM” value is -9.46%.

On to `CCCC(=O)Nc1ccc2c(c1)COC2=O`, for which the “hERG current change (%, negative = inhibition) at 10uM” value turned out to be 16.8%.

For `Cc1ccc(CC2CC(=O)N(c3ccncc3)C2=O)cc1` (stereo not drawn), the “hERG current change (%, negative = inhibition) at 10uM” value came to 6.32%.

On to `CN(C(=O)CCNC(=O)Cn1ccc2ccccc2c1=O)c1ccc(Br)cc1`, for which the “hERG current change (%, negative = inhibition) at 10uM” value is on record as 17.5%.

Regarding `COc1ccc([N+](=O)[O-])cc1NS(=O)(=O)c1ccccc1`, the “hERG current change (%, negative = inhibition) at 10uM” value amounted to 8.94%.

Turning to `CN(C)CCCN=C(NO)c1ccc(Cl)cc1Cl`, the “hERG current change (%, negative = inhibition) at 10uM” value turned out to be 15.2%.

Consider `CC(=O)N=c1sc2ccccc2n1C`, for which the “hERG current change (%, negative = inhibition) at 10uM” value is reported as 11.7%.

In the case of `O=C(/C=C/c1ccco1)N1CCc2ccccc21`, the “hERG current change (%, negative = inhibition) at 10uM” value turned out to be 4.9%.

Take `Cc1ccc(NC(=O)Cn2ccc([N+](=O)[O-])n2)cc1C`: the “hERG current change (%, negative = inhibition) at 10uM” value is 14.2%.

Take `N#C/C(=C\c1ccc(Cl)cc1)c1nc2ncccc2[nH]1`: the “hERG current change (%, negative = inhibition) at 10uM” value is listed as -15.1%.

On to `O=S(=O)(c1cccs1)N1CCN(Cc2cccc(F)c2)CC1`, for which the “hERG current change (%, negative = inhibition) at 10uM” value is given as -1.83%.

As to `N#Cc1c(N)n(-c2ccccc2N)c2nc3ccccc3nc12`, the “hERG current change (%, negative = inhibition) at 10uM” value was 15.1%.

For `Cc1ccc(NC(=O)CCNS(=O)(=O)c2ccc3c(c2)oc(=O)n3C)cc1`, the “hERG current change (%, negative = inhibition) at 10uM” value is -13.2%.

For `Cc1ccccc1NC(=O)c1ccc(-n2cncn2)nc1`, the “hERG current change (%, negative = inhibition) at 10uM” value was -14.1%.

Take `Fc1ccc(C2c3[nH]c4ccccc4c3CCN2CCCn2cccn2)cc1` (stereo not drawn): the “hERG current change (%, negative = inhibition) at 10uM” value is -70.1%.

Take `CCNNC(=O)C(O)(Cc1ccccc1)Cc1ccccc1`: the “hERG current change (%, negative = inhibition) at 10uM” value is given as 13.4%.

For the molecule `CCN1C(=O)C(CC(=O)Nc2cc(C)ccc2C)SC1=Nc1ccc(S(N)(=O)=O)cc1` (stereo not drawn), the “hERG current change (%, negative = inhibition) at 10uM” value was -13.2%.

On to `O=C(Nc1ccc(CN2CCOCC2)cc1)c1ccc(N2CCCC2)c([N+](=O)[O-])c1`, for which the “hERG current change (%, negative = inhibition) at 10uM” value is recorded as -21.4%.

Consider `COc1ccc(C2=NN(C(=O)c3ccc(Cl)c([N+](=O)[O-])c3)C(c3ccccc3)C2)cc1` (stereo not drawn), for which the “hERG current change (%, negative = inhibition) at 10uM” value was 10.4%.

For the molecule `COc1ccc(OC)c(NS(=O)(=O)c2ccc(Cl)s2)c1`, the “hERG current change (%, negative = inhibition) at 10uM” value was -4.52%.

Regarding `O=C(COC(=O)c1cc(-c2cccs2)nn1-c1ccccc1)Nc1ccc(Cl)c([N+](=O)[O-])c1`, the “hERG current change (%, negative = inhibition) at 10uM” value turned out to be 2.93%.

With `CCn1cc(C(C)NC(=O)COc2ccc(Cl)cc2C)c(C)n1` (stereo not drawn), the “hERG current change (%, negative = inhibition) at 10uM” value is on record as 13.7%.

Regarding `Cc1ccc(C2=CC(c3cccs3)n3nnnc3N2)cc1` (stereo not drawn), the “hERG current change (%, negative = inhibition) at 10uM” value was -1.97%.

`CCN1CCN(C(c2cccs2)C(C)NC(=O)c2c(F)cccc2F)CC1` (stereo not drawn): the “hERG current change (%, negative = inhibition) at 10uM” value is reported as -7.77%.

On to `COc1ccc([C@@H]2[C@H]3C(=O)N(c4cccc(C(F)(F)F)c4)C(=O)[C@H]3ON2C)cc1`, for which the “hERG current change (%, negative = inhibition) at 10uM” value is reported as -12.1%.

With `O=C(C1CC1)N1CCN=C1SCc1cccc(F)c1`, the “hERG current change (%, negative = inhibition) at 10uM” value is on record as -2.29%.

Consider `CC(=O)c1ccc(OCc2cc(C(=O)N(C)Cc3ccccn3)no2)cc1`, for which the “hERG current change (%, negative = inhibition) at 10uM” value was -26.1%.

As for `Cc1oc(-c2cccc(Cl)c2)nc1CN1CCC(C(=O)NCc2ccco2)CC1`, the “hERG current change (%, negative = inhibition) at 10uM” value was -78%.

As for `O=C(COC(=O)c1ccccc1OCc1ccc(Cl)cc1)NC1CC1`, the “hERG current change (%, negative = inhibition) at 10uM” value worked out at 8.16%.
